Drawing on PubChem BioAssay AID485344 (National Center for Advancing Translational Sciences (NCATS), 2010), this text covers inhibition for 95 compounds.

The whole screen tested about 340,000 compounds, of which about 6,900 (2%) were called active. No stated cut-off is given here; in the data, active means inhibition above about 30%; inactive means below that, where a call was filed. Only a part is listed here, and it is no random draw. Where no call is shown, the source filed none.

UniProt P14416, sequence (P14416 whole entry, looked up): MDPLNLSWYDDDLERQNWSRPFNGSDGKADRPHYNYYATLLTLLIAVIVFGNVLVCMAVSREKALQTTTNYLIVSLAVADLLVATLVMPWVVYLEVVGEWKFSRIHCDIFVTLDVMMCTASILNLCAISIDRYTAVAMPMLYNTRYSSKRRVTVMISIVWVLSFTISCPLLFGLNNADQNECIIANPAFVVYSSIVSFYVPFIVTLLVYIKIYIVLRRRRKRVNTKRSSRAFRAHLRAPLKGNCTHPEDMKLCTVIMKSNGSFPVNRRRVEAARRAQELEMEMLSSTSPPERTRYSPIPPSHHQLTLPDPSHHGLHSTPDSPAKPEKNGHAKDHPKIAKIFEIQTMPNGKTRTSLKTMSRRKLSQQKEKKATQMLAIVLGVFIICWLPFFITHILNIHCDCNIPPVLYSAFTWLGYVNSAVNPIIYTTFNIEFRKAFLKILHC

The target of this test is D(2) dopamine receptor (Homo sapiens) (UniProt P14416). The experiment in a line: HTS Assay for Allosteric Antagonists of the Human D2 Dopamine Receptor: Primary Screen for Antagonists. Further: 0% is about no effect. The following applies: HEK293 TREx D2 cells, calcium flux, dopamine EC80; at 10 µM; stronger effect = higher value. In outline:
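In this primary screen, negative modulation is detected by tracking calcium flux after an EC80 dopamine challenge in inducible HEK293 T-REx D2 cells preexposed to test compound for 180 s.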
On the technique in general: Calcium flux is commonly read through the fluorescence of an indicator in the cells.
Consider `O=C(Cn1c(=O)n(-c2ccc(F)c(Cl)c2)c(=O)c2sc3ccccc3c21)NC1CCCC1`, for which the inhibition was -10.2%.
For `Cc1ccc(-n2c(=O)c3oc4ccccc4c3n(Cc3ccccc3F)c2=O)cc1C` the value was 2.32%; for `CCC(C)NC(=O)C(=O)Nc1c2c(nn1-c1ccccc1)CS(=O)(=O)C2` (stereo not given), -7.3%.
For `Cc1ccc(CNC(=O)Cn2cc(C(=O)c3ccc(F)cc3)c(=O)c3ccc(C)nc32)cc1` the value was -0.363%; for `CCOC(=O)C1CCN(C(=O)C2CCN(C3=NS(=O)(=O)C(c4ccc(C)c(C)c4)=C3C)CC2)CC1`, 18.3%.
Take `CCc1ccc(Cc2cnc(NC(=O)c3ccc4c(c3)CC(c3ccccc3)OC4=O)s2)cc1` (stereo not given): the inhibition is 2.11%.
For `Cc1cccc(C2CC(=O)Oc3c2c(=O)n(C)c2ccccc32)c1` (stereo not given) the value was 6.1%.
In the case of `CC(CC(=O)Nc1ccc(Br)cc1F)S(=O)(=O)c1ccc2c(c1)NC(=O)CO2` (stereo not given) it was 10%; in that of `CC(C)c1ccc(C2N=C(N)Nc3nc4ccccc4n32)cc1` (stereo not given), 16.4%; in that of `Cc1c(C)n(C)c2ccc(C(=O)N3CCN(c4ccccc4)CC3)cc12`, 1.8%.
In the case of `Cc1c(Cl)cccc1NC(=O)C(C)n1nnc2sc3c(c2c1=O)CCCC3` (stereo not given), the inhibition was -11.6%.
Consider `CSc1ncc(Cl)c(C(=O)N(Cc2ccc(N(C)C)cc2)Cc2ccco2)n1`, for which the inhibition turned out to be 7.12%.
For `Cc1cc(C)cc(NC(=O)Cn2c(=O)c3ccccc3n3nncc23)c1` the value was -7.36%.
On to `Cc1ccc2c(=O)cc(C(=O)Nc3ccc(S(=O)(=O)N4CCCCCC4)cc3)oc2c1C`, for which the inhibition came to 6.23%.
In the case of `CCc1ccc(CNC(=O)CN2C(=O)c3cccnc3Oc3ccc(C)cc32)cc1` it was -8.58%; in that of `CCOC(=O)c1ccccc1NC(=O)c1sc2nc3n(c(=O)c2c1C)CCCC3`, -5.07%.
In the case of `CC1=C(c2ccc(C)cc2)S(=O)(=O)N(Cc2ccc(C(=O)Nc3ccc(F)cc3C)cc2)C1=O` it was 3.08%; in that of `COc1ccccc1NC(=O)CN1C(=O)C2(SCC(=O)N2c2ccc(C)c(C)c2)c2ccccc21` (stereo not given), -4.93%.
In the case of `Cc1ccc(N(CC(=O)Nc2cc(C)cc(C)c2)S(=O)(=O)c2cccc3nonc23)cc1` it was -11.8%; in that of `O=C(NCCCN1CCN(c2ccc(F)cc2)CC1)Nc1ccc([N+](=O)[O-])cc1`, active: 45.2%.
Take `NS(=O)(=O)c1ccc(NC(=O)c2ccc3c(c2)CCN3S(=O)(=O)c2ccccc2)cc1`: the inhibition stood at 8.37%.
With `CCn1ccc2cc(S(=O)(=O)N3CCC(C(=O)NCCc4ccc(C)cc4)CC3)ccc21`, the inhibition was 19.8%.
For `COc1cc(OC)cc(C(=O)NCC(c2cccs2)S(=O)(=O)c2ccc(F)c(C)c2)c1` (stereo not given) the value was -1.84%.
In the case of `COc1ccc(CNC(=O)c2cccc(-n3cnc4cccnc43)c2C)cc1` it was 3.07%.
In the case of `CCOc1ccc(NC(=O)Cn2ccn(-c3ccc(F)c(F)c3)c(=O)c2=O)cc1` it was -7.35%; in that of `COc1cccc(C(=O)Nc2ccc(-c3cn4cccnc4n3)cc2)c1OC`, -1.1%.
With `O=C(CN1C(=O)COc2ccccc21)NCCCN1CCN(c2ccccc2F)CC1`, the inhibition is active: 77.6%.
Regarding `CCOCCSc1c(C)cnc2c1c(=O)n(C)c(=O)n2C`, the inhibition came out at 9.28%.
As for `COc1cc2ccccc2cc1C(=O)Nc1ccc(Cl)c(-c2nc3ccccc3o2)c1`, the inhibition is -16.8%.
For `Cc1ccc(N2C(=O)c3[nH]nc(-c4ccc(Cl)cc4)c3C2c2ccc(F)cc2)cc1` (stereo not given) the value was 5.84%; for `COC(=O)C(CCSC)NC(=O)c1c(C)oc2ncn(CC(C)C)c(=O)c12` (stereo not given), 4.07%; for `Cc1ccc(NC(=O)C(=O)NCC(c2cccnc2)N2CCN(C)CC2)cc1F` (stereo not given), 17.2%.
Consider `O=C(c1cc2ccccc2o1)N1CCN(Cc2ccc3c(c2)OCO3)CC1`, for which the inhibition was active: 77.7%.
In the case of `CCOC(=O)c1ccc(NC(=O)c2ccc3c(c2)NC(=O)c2ccccc2S3)cc1` it was 15.7%; in that of `O=C(NCc1cccnc1)c1ccc(-c2cc(Cl)ccc2Cl)o1`, active: 49.9%; in that of `Cc1c(Cl)cccc1NC(=O)CSc1ncccc1C(=O)Oc1ccccc1Cl`, 15.6%.
For the compound `COc1cccc(-n2c(=O)c3c(C)c(C(=O)N(C)C)sc3n(CC(=O)NCCc3ccc(OC)c(OC)c3)c2=O)c1`, the inhibition came out at 24.4%.
In the case of `NC(=O)c1cccnc1` it was active: 40.4%; in that of `CCc1ccc(NC(=O)CSc2nc3nccnc3c(=O)n2CCc2c[nH]c3ccccc23)cc1`, -15.1%; in that of `COc1ccc(-c2nc(C)c(CCNC(=O)Cc3ccc(F)cc3)s2)cc1OC`, 25.7%.
For `CCOc1ccc(OCC)c(NC(=O)C2CCN(S(=O)(=O)c3ccc(Br)s3)CC2)c1` the value was 6.68%.
Consider `COc1ccc2nc(SCC(=O)c3c(C)[nH]c4ccccc34)nc(C)c2c1`, for which the inhibition is 0.994%.
For the compound `O=C(Nc1ccc(F)cc1)[C@H](CSCc1ccccc1)N1Cc2ccccc2C1=O`, the inhibition is -4.52%.
As for `O=C(COC(=O)CCCC1=NS(=O)(=O)c2ccccc2N1)Nc1ccc(Br)cc1`, the inhibition is -9.58%.
For the compound `CCc1ccccc1NC(=O)C1CCC(CNS(=O)(=O)c2ccc3c(c2)CC(C)N3C(C)=O)CC1` (stereo not given), the inhibition is -13.1%.
`COc1ccc2nc(NC(=O)c3nc(SCc4ccc(F)cc4)ncc3Cl)sc2c1`: the inhibition was -24.2%.
Consider `Cc1cn2c(=O)c(S(=O)(=O)NCCc3ccccc3)c(C)nc2s1`, for which the inhibition amounted to 0.66%.
With `COc1ccc(-c2oc3ncnc(NCCCN(C)C)c3c2-c2ccc(OC)cc2)cc1`, the inhibition was active: 53.5%.
In the case of `Cc1ccc(N2C(=O)CSC23C(=O)N(CC(=O)NC2CCCCC2)c2ccccc23)cc1` (stereo not given) it was -2.9%; in that of `CCOc1cc(Cl)c(NC(=O)CC)cc1OCC`, active: 70.7%; in that of `Cc1ccc(C)c(N2CCN(CCCNC(=O)Nc3cc(Cl)ccc3C)CC2)c1`, -8.48%.
For `COc1cccc(NC(=O)CCNS(=O)(=O)c2ccc(Br)s2)c1` the value was -0.665%.
In the case of `CCc1nn(CC(=O)N2CCCCC2)c(=O)c2cc3sccc3n12` it was -2.08%.
Take `COc1ccc(CNC(=O)Cc2csc3ccccc23)cc1OC`: the inhibition was determined as 10.7%.
For `CC(NC(=O)c1cc(Sc2ccc(F)cc2F)nc2ccccc12)c1ccccc1` (stereo not given) the value was 0.667%; for `COc1cc(Br)c(/C=C(\C#N)c2nc3ccccc3[nH]2)cc1OC`, -3.45%.
For `CCCCOc1ccc(CNC(=O)C2CCN(c3nnc(-n4cccc4CNc4ccc(C)cc4)s3)CC2)cc1` the value was -3.18%; for `COc1ccc2c(c1)CCc1c(C(=O)Nc3cc(C)ccc3O)noc1-2`, 9.1%; for `COc1ccccc1NC(=O)Cc1c(C(=O)O)[nH]c2ccc(Cl)cc12`, 2.79%.
In the case of `Cc1ccc(-c2nc3cc(C(C)C)ccc3o2)cc1NC(=O)c1cccs1` it was 5.18%.
For `Cc1cccc(NC(=O)CSc2nc3ccc(NC(=O)c4ccco4)cc3s2)c1`, the inhibition was determined as 7.71%.
In the case of `COCCn1c(C)cc(O)c(C(c2ccccc2)N2CCN(C)CC2)c1=O` (stereo not given) it was -18.8%.
Turning to `O=C1C(Cl)=C(N2CCN(Cc3ccccc3)CC2)C(=O)N1c1ccccc1`, the inhibition is active: 36.7%.
For `COC(=O)c1cccc(Nc2c(-c3ccc(O)c(OC)c3)nc3nc[nH]n23)c1` the value was 8.32%.
In the case of `CCOc1ccc(-c2c(C)nn3c(C)c(C(=O)Nc4ccccc4C(=O)OC)cnc23)cc1OCC` it was -3.82%.
In the case of `CCOc1ccc(NC(=O)C2Cc3ccccc3N2C(=O)c2ccccc2)cc1` (stereo not given) it was 0.504%; in that of `Cc1nc2cc(-c3ccccc3)nn2c(C)c1CCC(=O)N1CCN(c2ccccn2)CC1`, active: 36.3%.
On to `CC1CCc2cc(F)ccc2N1S(=O)(=O)c1ccc(Cl)nc1` (stereo not given), for which the inhibition is active: 35.4%.
Regarding `Cc1ccccc1OCc1nnc(SCc2cc(=O)c3ccccc3[nH]2)n1C`, the inhibition was -1.91%.
In the case of `CCOC(=O)C1=C(CS(=O)(=O)c2c(C)cc(C)cc2C)NC(=O)NC1c1cccc(OC)c1` (stereo not given) it was -2.9%; in that of `COc1ccccc1N1CCN(C(CNC(=O)C(=O)NCCCN(C)C)c2cccnc2)CC1` (stereo not given), 6.69%; in that of `COc1ccc(N(CC(=O)NCCc2cccc(C)c2)S(=O)(=O)c2c(C)nn(C)c2C)cc1`, -3.89%.
In the case of `O=C1CC(c2ccccc2C(F)(F)F)c2c(c3ccccc3[nH]c2=O)O1` (stereo not given) it was -13.1%.
As to `Cc1ccc2nc(-c3ccc(O)cc3)c(Nc3ccc4c(c3)OCO4)n2c1`, the inhibition is -19.6%.
For the compound `CCn1nnnc1NCc1ccc(Cl)cc1`, the inhibition was active: 46.7%.
For `CC(C)N(Cc1ccccc1)C(=O)CCS(=O)(=O)c1cc2c(cc1Cl)NC(=O)CO2` the value was -1.61%; for `Cc1nn(C)c(C)c1S(=O)(=O)N1CCC(C(=O)NCCC2=CCCCC2)CC1`, active: 30.3%.
As to `Cc1cc(C)n2nc(SCC(=O)Nc3ccccc3)nc2n1`, the inhibition was determined as 6.47%.
In the case of `CCc1ccc(NC(=O)CSc2nc3n[nH]c(C)c3c(=N)n2-c2ccccc2C)cc1` it was 20%; in that of `COc1cccc(C(=O)Nc2ccccc2OCc2cc(=O)n3cc(C)ccc3n2)c1`, -7.92%.
For `CCCNC(=O)C1CCN(S(=O)(=O)c2ccc3c(c2)CCCN3C(C)=O)CC1` the value was -11.1%; for `Cc1oc(-c2ccc(Cl)cc2)nc1CS(=O)CC(=O)NCc1ccc(Cl)cc1` (stereo not given), -7.84%.
For the compound `CC1=C(C(N)=O)C(c2cccc(Br)c2)n2nc(SCc3ccccc3)nc2N1` (stereo not given), the inhibition was found to be 1.54%.
For `O=C(Nc1cccc(C(=O)N2CCN(c3ccc(Cl)cc3)CC2)c1)c1nsc2ccccc12` the value was 5.11%; for `O=C(NCc1cccnc1)C1CCN(Cc2cc3ccccc3n2Cc2cccc(Cl)c2)CC1`, 12.5%; for `Cc1cc2nc(C3CCCN(C(=S)Nc4ccccc4)C3)[nH]c2cc1C` (stereo not given), active: 31%.
As for `CCCCc1nnc(SCc2cc(=O)c3cc(C(=O)OCC)ccc3[nH]2)n1C`, the inhibition turned out to be 5.24%.
As for `O=C(CSc1cn(CCNC(=O)c2c(F)cccc2F)c2ccccc12)Nc1ccc2c(c1)OCCO2`, the inhibition is -10.4%.
`CC(C)CC(NS(=O)(=O)c1ccc2c(c1)oc(=O)n2C)C(=O)NCCc1ccc(Cl)cc1` (stereo not given): the inhibition was -6.1%.
For `Cc1cc(C)cc(NS(=O)(=O)c2ccc3[nH]cc(C(=O)N4CCCC4)c(=O)c3c2)c1` the value was -1.92%; for `O=C(OCc1cc(=O)n2nc(C3CC3)sc2n1)c1ccc(F)cc1`, 15.6%; for `CCOc1ccccc1NC(=O)Cn1cnc2onc(-c3ccc(F)cc3)c2c1=O`, 1.34%.
Take `COc1ccc(-n2c(=O)c3ccc(C(=O)NCc4ccc(C)cc4)cc3n(CC(=O)Nc3ccc(F)cc3)c2=O)cc1`: the inhibition was -10%.
In the case of `CC(C)CC(=O)Nc1ccc(C(=O)OCc2cc(=O)n3nc(C(C)C)sc3n2)cc1` it was 9.72%; in that of `COc1cccc(C(=O)Nc2cc(-c3ccccc3)no2)c1`, 14.3%.

For orientation: inhibition means the relative decrease from the control value, in per cent.
